Where “and” joins values, the source holds several entries; their conditions need not be identical. Equal entries are not always repeated.
How the values were obtained:
[1] = molecular target: the molecule itself; assay: non-reducing SDS-PAGE and western blotting
[2] = molecular target: the molecule itself; assay: reducing SDS-PAGE and western blotting

B1: recombinant human wild-type mannan-binding lectin (MBL) (natural protein)
chain: not shown
[1]
  stoichiometry N: 3 and 4
[2]
  stoichiometry N: 2

From PMC3493102 (Molecular Medicine Reports, 2012)
